Laboratory results from PubChem BioAssay AID1476 (National Center for Advancing Translational Sciences (NCATS), 2009).
Hit rate of the full screen: of about 200,000 compounds, about 4,500 (2.2%) were called active. The inconclusive results got no clear call from the source; some entries with a clear call stand among them for comparison. Calls follow the shape of the dose curve; as a rule, active = well fitted inhibition curve with a large enough effect; inconclusive = small, poorly fitted or top-dose-only effect, or effect the other way; inactive = flat fitted curve, though single readings scatter. Potencies of inconclusive entries are doubtful fits and often do not repeat.

What follows are compounds tested against Cruzipain (Trypanosoma cruzi) (UniProt P25779) (assay: qHTS Assay for Promiscuous and Specific Inhibitors of Cruzain (without detergent)). Settings: purified cruzain, Z-FR-AMC fluorescence, no detergent.
Chain of UniProt P25779 (P25779 whole entry, looked up): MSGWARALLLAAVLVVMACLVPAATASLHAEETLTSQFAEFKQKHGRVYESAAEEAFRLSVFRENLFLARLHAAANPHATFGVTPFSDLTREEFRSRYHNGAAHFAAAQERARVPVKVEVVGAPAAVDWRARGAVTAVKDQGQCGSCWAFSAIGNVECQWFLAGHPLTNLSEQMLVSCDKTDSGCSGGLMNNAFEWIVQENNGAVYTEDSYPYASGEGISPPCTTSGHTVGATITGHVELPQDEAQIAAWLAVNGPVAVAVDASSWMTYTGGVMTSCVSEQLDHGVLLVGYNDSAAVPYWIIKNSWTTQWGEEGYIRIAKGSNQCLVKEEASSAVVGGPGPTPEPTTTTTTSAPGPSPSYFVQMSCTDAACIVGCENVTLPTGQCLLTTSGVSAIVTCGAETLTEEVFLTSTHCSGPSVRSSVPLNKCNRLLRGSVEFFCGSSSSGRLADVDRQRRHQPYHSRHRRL
Outline: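 Detergent-free condition (0.00005% Triton X-100) in acetate buffer pH 5.5 with DTT. 1.5 nM enzyme and compound were pre-mixed 15 min, then 2 uM Z-FR-AMC substrate added; reaction progress from fluorescence change between first and third reads (60 s).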
Also: nearly all actives have a fitted effect of over 40% in size.
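For max response, negative = inhibition in this document: plate controls were enzyme without inhibitor for no effect and buffer without enzyme for full effect.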
Potency is read from the fitted curve at half-maximal effect; tags tell the direction and shape of the fitted curve.

SMILES | Potency | max response, negative = inhibition
CCc1nc2ccccc2c(C(=O)OCc2nnc(-c3ccccc3)o2)c1C | inconclusive: 39.8 µM [activator, single point] | 
Cc1nc(NC(=O)c2ccco2)sc1-c1csc(Nc2ccc(Cl)cc2)n1 | active: 12.6 µM | 
CCN(CC)CCCN1C(=O)C(=O)/C(=C(/O)c2ccc3c(c2)CC(C)O3)C1c1ccncc1 (stereo not drawn) | inconclusive: 0.316 µM [inhibitor, full curve, poor fit] | 
COc1cccc(-c2cn3c(n2)sc2cc(C(=O)NCCc4ccccc4)ccc23)c1 | inconclusive: 39.8 µM [activator, single point] | 
Cc1cc(C(=O)CN2C(=O)NC3(CCCc4ccccc43)C2=O)c(C)n1Cc1ccccc1 (stereo not drawn) | active: 25.1 µM | 
Cc1ccccc1-n1cnnc1SCC(=O)N1CCN(c2ccccc2)CC1 |  | inactive: 9.83%
Cc1ccc(Cl)cc1N1CCN(C(=O)C2CCN(S(=O)(=O)c3c(C)noc3/C=C/c3ccccc3F)CC2)CC1 | active: 6.31 µM | 
Cc1ccc(-c2cn3c(n2)sc2cc(C(=O)NC4CCCCCC4)ccc23)c(C)c1 | active: 10 µM | 
O=S(=O)(c1ccc(Br)cc1)N1CCn2cccc2C1c1ccc(Br)cc1 (stereo not drawn) | inconclusive: 31.6 µM [inhibitor, single point] | 
Cc1nc2c(-c3ccccc3)c(C)nn2c(C)c1CCC(=O)N1CCC2(CC1)OCCO2 | inconclusive: 31.6 µM [activator, single point] | 
Cc1ccc(C)c2[nH]c(=O)c(CN(CC3CCCO3)S(=O)(=O)c3ccc4c(c3)OCCO4)cc12 (stereo not drawn) | inconclusive: 31.6 µM [activator, single point] | 
O=C(Nc1ccc(Cl)cc1)c1cnc(-c2ccccc2)nc1-c1ccccc1 | inconclusive: 39.8 µM [inhibitor, single point] | 
COc1ccc(C(=O)NCC(c2cccs2)S(=O)(=O)c2cccs2)cc1 (stereo not drawn) |  | inactive: 1.09%
Cc1ccc(S(=O)(=O)Nc2nc3n(n2)C(c2ccc(Cl)cc2)C=C(c2ccccc2)N3)cc1 (stereo not drawn) | inconclusive: 39.8 µM [activator, single point] | 
CCCn1c2ccc(C)cc2c2nnc(SCCN3CCCCC3)nc21 | inconclusive: 39.8 µM [inhibitor, single point] | 
COc1cc(OC)c2ccc(=O)oc2c1 | inconclusive: 31.6 µM [inhibitor, single point] | 
Cc1cc(O)c(/C=N/Nc2ccccc2Cl)c(=O)o1 | inconclusive: 39.8 µM [inhibitor, single point] | 
Cc1ccc(C(=O)COC(=O)c2cccc(NC(=O)c3ccc([N+](=O)[O-])cc3[N+](=O)[O-])c2)cc1 | inconclusive: 39.8 µM [inhibitor, single point] | 
CCCN(C(=O)Cn1nc(Cc2cccnc2)c2ccccc2c1=O)c1ccc(C(C)C)cc1 | inconclusive: 6.31 µM [activator, single point] | 
NCc1nnn(Cc2ccccc2)c1N |  | inactive: 5.03%
O=C(COC(=O)c1cccc([N+](=O)[O-])c1)c1ccc(OCc2ccccc2)cc1 | active: 25.1 µM | 
CN1CCN(c2ncc3ncc(=O)n(C)c3n2)CC1 | inconclusive: 39.8 µM [inhibitor, single point] | 
O=C(CSc1nnc(-c2ccccc2)c(-c2ccccc2)n1)Nc1ncc(Cl)cc1Cl | active: 31.6 µM | 

SMILES | Potency | max response, negative = inhibition
COC(=O)c1c(NC(=O)COC(=O)c2ccc(Cl)cc2[N+](=O)[O-])sc2c1CCCCC2 | inconclusive: 39.8 µM [inhibitor, single point] | 
O=C(COC(=O)c1ccccc1NC(=O)c1ccccc1)c1cccc([N+](=O)[O-])c1 | inconclusive: 39.8 µM [inhibitor, single point] | 
O=P(NS(=O)(=O)c1ccc(Br)cc1)(Oc1ccccc1)Oc1ccccc1 | inconclusive: 25.1 µM [activator, partial curve] | 
COc1cccc(C(=O)Cn2c(NCCO)nc3ccccc32)c1 | inconclusive: 1 µM [inhibitor, single point] | 
COc1ccc(Oc2ncc3ncc(=O)n(Cc4cccs4)c3n2)cc1 |  | inactive: 11%
COc1ccc(NC(=O)C2(c3ccc(NC(=O)c4ccc(C)cc4)cc3)CCCC2)cc1 | active: 6.31 µM | 
CCn1cc(C(=O)NCc2ccccc2Cl)c(=O)c2cc(S(=O)(=O)N3CCOCC3)ccc21 | inconclusive: 39.8 µM [activator, single point] | 
CCOC(=O)C1=C(CN(C)Cc2ccccc2)NC(=O)NC1c1ccc(OC(C)C)cc1 (stereo not drawn) |  | inactive: -4.35%
CCOC(=O)C1C(=O)CC(C)(O)C(C(=O)OCC)C1c1cc(Br)ccc1OC (stereo not drawn) | inconclusive: 31.6 µM [activator, single point] | 
CC(C)C[C@@H](NC(=O)OCC1c2ccccc2-c2ccccc21)C(=O)O | inconclusive: 15.8 µM [activator, single point] | 
Cc1cccc(-n2ccnc2SCC(=O)Nc2cc(C(F)(F)F)ccc2Cl)c1 |  | inactive: -5.01%
O=C(c1ccc2nc(N3CCOCC3)sc2c1)N1CCCC1 | inconclusive: 3.16 µM [inhibitor, single point] | 
C/C(=N/NC(=O)c1ccc(Cl)s1)c1ccc(NC(=O)COc2ccc(Cl)cc2)cc1 | active: 20 µM | 
COc1ccc(-c2csc(N3C(=O)C4C5c6ccccc6C(c6ccccc65)C4C3=O)n2)cc1 (stereo not drawn) | active: 15.8 µM | 
CC(=O)C1=NN(c2ccccc2)C2(S1)S/C(=C\c1ccccc1)C(=O)N2c1ccccc1 (stereo not drawn) | active: 10 µM | 
CCOC(=O)Nc1ccc2c(CN3C(=O)NC4(CCCC4)C3=O)cc(=O)oc2c1 |  | inactive: -8.49%
N#Cc1cccc(CS(=O)(=O)c2ccccc2)c1 |  | inactive: -1.93%
CCOC(=O)c1[nH]c(C)c(C(=O)NCCc2ccccc2)c1C |  | inactive: 18.1%
CC1=NNC(=O)/C1=C\c1cn(-c2ccccc2)nc1-c1cccs1 | inconclusive: 31.6 µM [activator, partial curve] | 
CCOc1cc(/C=N/NC(=O)CSc2nncn2C)ccc1OCc1ccccc1 | inconclusive: 39.8 µM [activator, single point] | 
Cc1ccc(C)c(S(=O)(=O)Nc2ccccc2C(=O)Nc2ccccc2N2CCOCC2)c1 | inconclusive: 31.6 µM [inhibitor, single point] | 
CCOc1ccc(-n2c(SCC(=O)N3CCCc4ccccc43)nc3c([nH]c4ccccc43)c2=O)cc1 |  | inactive: 10.6%
O=C(CSc1nnnn1-c1ccc(F)cc1)Nc1nc2ccccc2s1 | inconclusive: 31.6 µM [inhibitor, single point] | 

SMILES | Potency | max response, negative = inhibition
CCn1c(C(=O)NCc2ccccc2)cc2sc(Cl)cc21 |  | inactive: -3.86%
Cc1ccc(/C=C(\NC(=O)c2ccccc2)C(=O)OCc2ccccc2)cc1 | inconclusive: 25.1 µM [inhibitor, single point] | 
COc1ccccc1NC(=O)N1CCOc2ccccc21 |  | inactive: 5.44%
Clc1nc(Nc2ccccc2)nc(Nc2ccccc2)n1 |  | inactive: -7.68%
CC(C)(C)C1CCC(C(=O)OCC(=O)N2CCOCC2)CC1 (stereo not drawn) | inconclusive: 39.8 µM [activator, single point] | 
CCCCN1C(=O)/C(=C2\SC(N3CCCCC3)=NC2=O)c2ccccc21 | inconclusive: 39.8 µM [activator, single point] | 
CC(NC(=O)COC(=O)[C@@H]1CCCN1S(=O)(=O)c1ccccc1F)C12CC3CC(CC(C3)C1)C2 (stereo partly drawn) | inconclusive: 39.8 µM [activator, single point] | 
Cc1ccc(C)c(N2CCN(S(=O)(=O)c3ccc4c(c3)CCN4C(=O)CCC(=O)O)CC2)c1 | inconclusive: 25.1 µM [activator, single point] | 
O=C(NCc1ccc(F)cc1Cl)c1ccc(CSCc2ccccc2Cl)o1 |  | inactive: 6.02%
CC(C)CCn1c(=O)c2sccc2n2c(CCCC(=O)Nc3ccc(F)c(Cl)c3)nnc12 |  | inactive: -11.4%
Cc1ccc(NC(=O)c2cc(-c3cccs3)nc3ccccc23)c(C)c1 | inconclusive: 25.1 µM [inhibitor, single point] | 
O=C(Nc1ccccc1)Nc1ccc(S(=O)(=O)N2CCCCC2)cc1 | inconclusive: 39.8 µM [activator, single point] | 
CCn1ncc(CNC(=O)CCCSc2nc(-c3ccco3)cc(C(F)(F)F)n2)c1C | inconclusive: 31.6 µM [activator, single point] | 
CC1Cc2ccccc2N1Cc1nc2scc(-c3cccs3)c2c(=O)[nH]1 (stereo not drawn) | active: 15.8 µM | 
Cc1ccc(C)c2[nH]c(=O)c(CN(CC3CCCO3)C(=O)NC3CCCCC3)cc12 (stereo not drawn) | inconclusive: 12.6 µM [activator, partial curve] | 
O=C(CC(=O)Nc1ccccc1F)Nc1ccc2nc3n(c(=O)c2c1)CCCCC3 |  | inactive: 5.59%
COc1cc2nc(SCc3ccc(C(F)(F)F)cc3)n(Cc3cccs3)c(=N)c2cc1OC | inconclusive: 39.8 µM [inhibitor, single point] | 
ICCc1ccccc1 | inconclusive: 0.126 µM [activator, full curve, poor fit] | 
O=S(=O)(N1CCCCCC1)N1CCN(S(=O)(=O)N2CCOCC2)CC1 |  | inactive: 1.82%
CN(C)c1ccc(NC(=O)C2(c3cccs3)CCOCC2)cc1 |  | inactive: -4.99%
C/C(CCc1ccc2c(c1)OCO2)=N\N=C(/N)SC1CC(=O)N(c2ccccc2F)C1=O (stereo not drawn) | active: 15.8 µM | 
CCOc1ccc(CCNC(=O)CCSCc2cccc(Cl)c2)cc1OCC | inconclusive: 39.8 µM [activator, single point] | 
